Source: publication PMC10923931
These are yes or no findings as the source states them, for the method shown. In cells and extracts the contact can be indirect. Some entries that bind do so weakly or less than the wild type. For part of these data: Tags and fused reporters may be left off the sequences shown.

Amino acid sequences for entries named in this document (tags omitted). Residues count along the entry.
UniProt O22476, residues 24-1196: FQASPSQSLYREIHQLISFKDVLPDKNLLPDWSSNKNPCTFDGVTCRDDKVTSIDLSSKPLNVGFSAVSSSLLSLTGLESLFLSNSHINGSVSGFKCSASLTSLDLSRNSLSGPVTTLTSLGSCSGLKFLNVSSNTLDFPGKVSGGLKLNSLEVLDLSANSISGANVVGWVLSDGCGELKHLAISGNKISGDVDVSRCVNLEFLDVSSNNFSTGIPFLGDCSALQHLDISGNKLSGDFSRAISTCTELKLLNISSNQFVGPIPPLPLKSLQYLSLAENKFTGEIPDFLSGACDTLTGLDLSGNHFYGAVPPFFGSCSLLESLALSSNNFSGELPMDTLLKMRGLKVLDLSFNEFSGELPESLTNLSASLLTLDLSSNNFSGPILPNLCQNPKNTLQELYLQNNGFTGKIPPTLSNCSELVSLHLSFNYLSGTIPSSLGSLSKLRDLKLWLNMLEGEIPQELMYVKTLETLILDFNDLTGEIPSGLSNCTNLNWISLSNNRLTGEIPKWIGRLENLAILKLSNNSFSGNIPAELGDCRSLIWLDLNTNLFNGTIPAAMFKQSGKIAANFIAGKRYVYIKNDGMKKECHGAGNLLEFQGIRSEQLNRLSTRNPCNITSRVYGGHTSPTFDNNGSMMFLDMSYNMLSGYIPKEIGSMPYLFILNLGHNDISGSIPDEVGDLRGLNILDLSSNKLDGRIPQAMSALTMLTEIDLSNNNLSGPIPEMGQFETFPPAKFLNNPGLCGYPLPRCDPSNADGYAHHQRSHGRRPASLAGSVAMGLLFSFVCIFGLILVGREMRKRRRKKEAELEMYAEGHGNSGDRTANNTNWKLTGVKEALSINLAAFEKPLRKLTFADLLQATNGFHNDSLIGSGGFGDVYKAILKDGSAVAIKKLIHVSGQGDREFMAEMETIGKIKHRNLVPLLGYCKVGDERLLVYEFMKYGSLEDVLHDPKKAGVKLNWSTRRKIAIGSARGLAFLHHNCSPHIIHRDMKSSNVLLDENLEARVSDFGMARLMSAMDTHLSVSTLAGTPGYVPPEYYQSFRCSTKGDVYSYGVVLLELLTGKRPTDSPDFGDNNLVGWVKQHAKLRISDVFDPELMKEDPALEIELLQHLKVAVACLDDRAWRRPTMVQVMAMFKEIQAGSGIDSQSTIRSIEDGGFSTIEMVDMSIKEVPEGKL

T1: SERK3 (native, in Arabidopsis seedlings) (Arabidopsis thaliana (endogenous in seedlings)) (UniProt Q94F62)
T1 sequence: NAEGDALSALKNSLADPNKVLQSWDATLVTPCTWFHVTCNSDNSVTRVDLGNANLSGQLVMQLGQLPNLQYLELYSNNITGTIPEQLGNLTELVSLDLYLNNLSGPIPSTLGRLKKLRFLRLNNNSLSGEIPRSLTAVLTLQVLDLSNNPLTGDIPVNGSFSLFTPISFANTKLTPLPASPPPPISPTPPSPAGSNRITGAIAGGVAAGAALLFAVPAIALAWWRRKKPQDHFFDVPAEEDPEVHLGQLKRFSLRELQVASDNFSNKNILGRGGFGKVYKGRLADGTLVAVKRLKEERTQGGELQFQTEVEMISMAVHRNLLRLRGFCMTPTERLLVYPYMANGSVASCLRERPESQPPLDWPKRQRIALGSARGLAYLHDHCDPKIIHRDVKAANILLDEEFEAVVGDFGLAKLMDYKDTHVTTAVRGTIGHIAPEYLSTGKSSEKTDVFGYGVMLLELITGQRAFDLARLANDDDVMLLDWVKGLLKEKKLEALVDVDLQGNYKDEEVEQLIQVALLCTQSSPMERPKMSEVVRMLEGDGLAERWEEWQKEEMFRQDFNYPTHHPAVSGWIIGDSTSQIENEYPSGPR

T2: SERK4-FLAG (Arabidopsis thaliana) (UniProt Q9SKG5)
T2 sequence: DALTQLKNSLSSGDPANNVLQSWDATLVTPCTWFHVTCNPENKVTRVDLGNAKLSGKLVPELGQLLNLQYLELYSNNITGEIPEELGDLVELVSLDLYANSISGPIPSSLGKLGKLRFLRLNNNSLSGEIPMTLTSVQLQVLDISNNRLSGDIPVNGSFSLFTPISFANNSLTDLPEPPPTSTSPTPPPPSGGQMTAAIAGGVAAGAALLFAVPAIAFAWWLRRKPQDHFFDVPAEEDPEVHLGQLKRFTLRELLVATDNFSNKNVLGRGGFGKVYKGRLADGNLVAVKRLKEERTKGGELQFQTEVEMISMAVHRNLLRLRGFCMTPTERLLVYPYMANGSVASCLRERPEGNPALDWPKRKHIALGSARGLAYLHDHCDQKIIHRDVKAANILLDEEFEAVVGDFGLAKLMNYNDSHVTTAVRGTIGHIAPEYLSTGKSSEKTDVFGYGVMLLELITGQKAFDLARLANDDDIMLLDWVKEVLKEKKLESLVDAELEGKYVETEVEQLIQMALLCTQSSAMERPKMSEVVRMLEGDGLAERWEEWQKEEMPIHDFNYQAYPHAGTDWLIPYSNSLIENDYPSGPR

T3: BON1-HA (Arabidopsis thaliana) (UniProt Q941L3)
T3 sequence: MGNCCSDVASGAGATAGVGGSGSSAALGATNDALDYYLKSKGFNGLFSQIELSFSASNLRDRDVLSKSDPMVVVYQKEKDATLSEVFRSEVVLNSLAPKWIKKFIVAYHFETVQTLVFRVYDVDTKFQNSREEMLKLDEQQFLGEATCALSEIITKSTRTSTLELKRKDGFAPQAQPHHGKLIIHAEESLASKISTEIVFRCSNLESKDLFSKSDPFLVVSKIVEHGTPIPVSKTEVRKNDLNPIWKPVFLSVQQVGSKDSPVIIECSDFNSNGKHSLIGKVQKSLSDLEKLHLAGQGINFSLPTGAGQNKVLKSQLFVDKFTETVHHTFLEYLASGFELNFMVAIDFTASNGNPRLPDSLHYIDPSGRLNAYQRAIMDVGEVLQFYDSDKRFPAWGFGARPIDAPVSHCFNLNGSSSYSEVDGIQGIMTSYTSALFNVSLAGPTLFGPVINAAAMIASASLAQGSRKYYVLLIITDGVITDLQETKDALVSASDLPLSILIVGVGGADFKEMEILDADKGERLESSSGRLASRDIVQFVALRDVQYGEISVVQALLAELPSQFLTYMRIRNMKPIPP

B1: SERK4-FLAG (receptor, UniProt Q9SKG5 34-620)
chain: T2 sequence

Key:
[1] = target: T1, SERK3 (native, in Arabidopsis seedlings) (Arabidopsis thaliana (endogenous in seedlings)); assay: co-IP; total proteins of 10-day-old Arabidopsis seedlings (pad4-1 and bon1-1 bon2-2 bon3-3 pad4-1), mock or eBL treated; anti-FLAG beads for SERK4-FLAG, α-SERK3 on IgG magnetic beads for SERK3; BRI1 detected with α-BRI1
[2] = target: T2, SERK4-FLAG (Arabidopsis thaliana); assay: as above
[3] = target: T3, BON1-HA (Arabidopsis thaliana); assay: co-IP; Arabidopsis Col-0 protoplasts co-transfected, 18 h; extracts incubated with anti-HA beads 4 h at 4 °C, washed four times with TBS; blots with anti-HA, anti-FLAG or anti-GFP

Row | Molecule | binding [1] | binding [2] | binding [3]
1 | BRI1 (native, in Arabidopsis seedlings) (from UniProt O22476 24-1196) (receptor) | binds | binds | –
2 | B1 | – | – | binds
